Laboratory results taken from publication PMC5678581 (BMC Biology, 2017).
These are yes or no findings as the source states them, for the method shown. Binding seen in cells or lysates may run through a third protein. Some binding calls cover weakened binding; strength is not graded here.

The chains behind the UniProt entries cited, without tags or fusion partners. Where a name states a change or a piece, a line headed by the entry shows the natural chain unless it says otherwise. A line that says so, or that is headed by a name, gives the form on record, which may keep a tag or linker. Residues count along the entry.
UniProt Q14258: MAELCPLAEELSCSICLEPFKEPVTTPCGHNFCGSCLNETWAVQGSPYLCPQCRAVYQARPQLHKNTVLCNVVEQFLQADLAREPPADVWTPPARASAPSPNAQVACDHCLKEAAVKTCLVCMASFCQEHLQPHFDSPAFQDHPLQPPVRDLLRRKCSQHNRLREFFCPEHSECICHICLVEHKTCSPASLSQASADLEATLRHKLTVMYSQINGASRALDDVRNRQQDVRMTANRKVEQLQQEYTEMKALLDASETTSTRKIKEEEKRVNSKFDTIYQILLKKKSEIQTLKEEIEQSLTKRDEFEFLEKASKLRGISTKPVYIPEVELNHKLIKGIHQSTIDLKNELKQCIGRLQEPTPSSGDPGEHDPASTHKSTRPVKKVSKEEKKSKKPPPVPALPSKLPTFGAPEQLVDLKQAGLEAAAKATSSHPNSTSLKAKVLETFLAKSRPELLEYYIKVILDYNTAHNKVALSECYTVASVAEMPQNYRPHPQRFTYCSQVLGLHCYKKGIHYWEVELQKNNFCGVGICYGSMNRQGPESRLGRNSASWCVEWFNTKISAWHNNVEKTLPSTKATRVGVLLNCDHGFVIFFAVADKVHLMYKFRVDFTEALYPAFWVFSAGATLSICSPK
T7-tagged TRIM25ΔRBD (lacking residues 470–508) (Q14258, form named): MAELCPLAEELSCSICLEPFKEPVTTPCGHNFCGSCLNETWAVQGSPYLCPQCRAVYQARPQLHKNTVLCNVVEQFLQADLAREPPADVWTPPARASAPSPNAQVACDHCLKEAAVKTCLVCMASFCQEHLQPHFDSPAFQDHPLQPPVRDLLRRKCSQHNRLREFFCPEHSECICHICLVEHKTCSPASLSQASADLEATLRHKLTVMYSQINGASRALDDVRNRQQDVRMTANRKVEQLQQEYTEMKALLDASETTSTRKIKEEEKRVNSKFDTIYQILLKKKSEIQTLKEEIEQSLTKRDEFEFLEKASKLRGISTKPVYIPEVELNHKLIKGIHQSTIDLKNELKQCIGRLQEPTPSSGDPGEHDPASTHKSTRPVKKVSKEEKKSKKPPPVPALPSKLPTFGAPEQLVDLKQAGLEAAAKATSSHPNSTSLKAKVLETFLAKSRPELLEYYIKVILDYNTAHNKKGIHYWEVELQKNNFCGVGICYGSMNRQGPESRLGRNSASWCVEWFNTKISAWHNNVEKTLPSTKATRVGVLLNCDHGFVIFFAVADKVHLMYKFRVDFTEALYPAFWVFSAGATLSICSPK
UniProt P17844: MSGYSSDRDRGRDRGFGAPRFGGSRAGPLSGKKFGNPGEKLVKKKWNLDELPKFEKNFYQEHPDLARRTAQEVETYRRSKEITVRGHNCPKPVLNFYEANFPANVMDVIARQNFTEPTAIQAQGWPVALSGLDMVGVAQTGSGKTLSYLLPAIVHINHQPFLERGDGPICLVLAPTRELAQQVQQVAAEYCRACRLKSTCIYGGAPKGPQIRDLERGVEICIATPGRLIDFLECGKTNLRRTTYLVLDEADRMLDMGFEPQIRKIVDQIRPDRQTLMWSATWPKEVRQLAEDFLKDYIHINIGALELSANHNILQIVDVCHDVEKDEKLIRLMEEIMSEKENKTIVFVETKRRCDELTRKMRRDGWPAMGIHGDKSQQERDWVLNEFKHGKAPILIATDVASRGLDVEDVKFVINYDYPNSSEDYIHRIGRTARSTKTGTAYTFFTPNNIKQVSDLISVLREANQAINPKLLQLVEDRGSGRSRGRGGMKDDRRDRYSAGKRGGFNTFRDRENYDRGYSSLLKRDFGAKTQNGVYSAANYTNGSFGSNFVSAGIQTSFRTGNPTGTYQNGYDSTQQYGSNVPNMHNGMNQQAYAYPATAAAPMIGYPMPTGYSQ
UniProt Q7Z2W4: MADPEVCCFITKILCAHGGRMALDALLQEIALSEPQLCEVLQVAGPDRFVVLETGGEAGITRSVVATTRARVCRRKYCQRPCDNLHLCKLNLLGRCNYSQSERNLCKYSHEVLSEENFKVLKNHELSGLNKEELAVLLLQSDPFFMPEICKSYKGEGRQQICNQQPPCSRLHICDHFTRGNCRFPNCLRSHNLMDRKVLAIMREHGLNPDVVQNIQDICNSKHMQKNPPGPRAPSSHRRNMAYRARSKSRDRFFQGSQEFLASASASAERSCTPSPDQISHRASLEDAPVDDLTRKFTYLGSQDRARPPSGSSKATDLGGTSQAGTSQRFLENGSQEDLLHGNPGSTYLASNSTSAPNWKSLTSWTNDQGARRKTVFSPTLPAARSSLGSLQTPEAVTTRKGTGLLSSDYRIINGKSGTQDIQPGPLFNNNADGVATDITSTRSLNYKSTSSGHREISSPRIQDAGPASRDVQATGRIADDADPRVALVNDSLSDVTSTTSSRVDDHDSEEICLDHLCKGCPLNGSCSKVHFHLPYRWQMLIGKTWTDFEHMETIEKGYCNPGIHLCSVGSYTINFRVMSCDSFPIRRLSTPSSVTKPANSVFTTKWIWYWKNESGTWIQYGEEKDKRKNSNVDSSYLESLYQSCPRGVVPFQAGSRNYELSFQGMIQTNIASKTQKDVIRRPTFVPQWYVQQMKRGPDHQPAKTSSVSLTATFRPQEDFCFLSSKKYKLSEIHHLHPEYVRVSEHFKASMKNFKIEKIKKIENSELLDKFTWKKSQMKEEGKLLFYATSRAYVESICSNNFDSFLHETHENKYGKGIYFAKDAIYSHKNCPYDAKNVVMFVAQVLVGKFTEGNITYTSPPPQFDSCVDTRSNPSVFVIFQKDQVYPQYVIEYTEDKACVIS
Zinc Finger Antiviral Protein (ZAP), shorter isoform (Q7Z2W4-2, form named): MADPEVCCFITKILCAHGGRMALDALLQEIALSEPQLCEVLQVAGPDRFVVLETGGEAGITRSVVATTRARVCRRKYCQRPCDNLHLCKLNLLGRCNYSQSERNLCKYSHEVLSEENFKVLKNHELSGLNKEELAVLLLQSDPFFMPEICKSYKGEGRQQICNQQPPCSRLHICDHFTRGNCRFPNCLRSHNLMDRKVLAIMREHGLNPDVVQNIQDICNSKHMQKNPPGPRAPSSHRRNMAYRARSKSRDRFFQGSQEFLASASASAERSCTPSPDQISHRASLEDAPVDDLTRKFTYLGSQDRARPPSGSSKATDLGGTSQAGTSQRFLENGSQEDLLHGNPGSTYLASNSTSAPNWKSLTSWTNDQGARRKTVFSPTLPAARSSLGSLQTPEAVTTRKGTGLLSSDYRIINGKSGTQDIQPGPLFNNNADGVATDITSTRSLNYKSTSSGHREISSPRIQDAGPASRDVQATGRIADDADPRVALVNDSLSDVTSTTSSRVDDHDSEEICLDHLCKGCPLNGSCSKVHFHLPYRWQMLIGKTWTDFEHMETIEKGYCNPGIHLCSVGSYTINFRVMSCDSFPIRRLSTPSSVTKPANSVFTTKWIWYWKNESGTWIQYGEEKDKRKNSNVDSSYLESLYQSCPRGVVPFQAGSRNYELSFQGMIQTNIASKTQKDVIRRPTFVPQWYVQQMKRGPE

Tests used:
[1] = molecular target: T7-tagged TRIM25 (wild type) (human) (UniProt Q14258); assay: co-IP; as a3 but in the presence of RNases A and T1; anti-T7 antibody on protein A agarose; western blot against ZAP and DDX5
[2] = molecular target: T7-tagged TRIM25 (wild type) (human) (UniProt Q14258); assay: co-IP; extracts of HeLa cells overexpressing T7-tagged TRIM25 constructs, endogenous RNAs present; anti-T7 antibody on protein A agarose; western blot against ZAP and DDX5
[3] = molecular target: T7-tagged TRIM25ΔRBD (lacking residues 470–508) (human) (UniProt Q14258); assay: co-IP; extracts of HeLa TRIM25 KO cells co-overexpressing T7-tagged and EGFP-tagged TRIM25; anti-T7 antibody on protein A agarose; western blot with anti-TRIM25 and anti-T7 antibodies
[4] = molecular target: T7-tagged TRIM25ΔRBD (lacking residues 470–508) (human) (UniProt Q14258); assay: co-IP; extracts of HeLa cells overexpressing T7-tagged TRIM25 constructs, endogenous RNAs present; anti-T7 antibody on protein A agarose; western blot against ZAP and DDX5

Substance: DDX5 (from UniProt P17844 1-614)
- binding [1]: binds
- binding [2]: binds

Substance: EGFP-tagged TRIM25 (wild type) (from UniProt Q14258 1-630)
- binding [3]: binds

Substance: Zinc Finger Antiviral Protein (ZAP), longer isoform (from UniProt Q7Z2W4 1-902)
- binding [4]: no binding

Substance: Zinc Finger Antiviral Protein (ZAP), shorter isoform (from UniProt Q7Z2W4-2 1-699)
- binding [4]: no binding
